Holding throughout (test): protein-binding microarray (PBM)
Common to all, as to settings: PBM: ~300 nM protein, 6 mM HEPES pH 7.8, 80 mM KCl, 0.5 mM EDTA, 0.5 mM EGTA, 6% glycerol, 35 ng/ul poly-dIdC, 1% milk, 1 h, room temperature; Ap Aiptasia and Nv Nematostella (sea anemones) / Co Capsaspora / Aq Amphimedon (sponge) / Dm Drosophila / Hu human; RHD is the Rel homology domain; high values mean tight binding; most listed sequences are background and not binding sites; double strand, one strand shown

Test [1] concerns the target T1, GST-Ap-NF-kB RHD (UniProt A0A913YAJ5).
T1 sequence: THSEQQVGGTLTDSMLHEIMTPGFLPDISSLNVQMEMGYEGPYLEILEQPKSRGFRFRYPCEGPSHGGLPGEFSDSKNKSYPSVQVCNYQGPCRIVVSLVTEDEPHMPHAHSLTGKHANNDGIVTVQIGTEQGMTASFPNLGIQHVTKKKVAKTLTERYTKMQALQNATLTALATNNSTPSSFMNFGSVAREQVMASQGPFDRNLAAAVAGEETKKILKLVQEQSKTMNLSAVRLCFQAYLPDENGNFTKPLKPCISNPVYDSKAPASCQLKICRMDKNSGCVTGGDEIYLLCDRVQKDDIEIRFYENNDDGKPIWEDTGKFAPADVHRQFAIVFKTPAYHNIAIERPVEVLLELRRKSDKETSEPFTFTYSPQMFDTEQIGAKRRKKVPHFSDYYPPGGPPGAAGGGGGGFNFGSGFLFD

In test [2] the target is T2, GST-Nv-NF-kB (Cys allele) (UniProt E5G601).
T2 sequence: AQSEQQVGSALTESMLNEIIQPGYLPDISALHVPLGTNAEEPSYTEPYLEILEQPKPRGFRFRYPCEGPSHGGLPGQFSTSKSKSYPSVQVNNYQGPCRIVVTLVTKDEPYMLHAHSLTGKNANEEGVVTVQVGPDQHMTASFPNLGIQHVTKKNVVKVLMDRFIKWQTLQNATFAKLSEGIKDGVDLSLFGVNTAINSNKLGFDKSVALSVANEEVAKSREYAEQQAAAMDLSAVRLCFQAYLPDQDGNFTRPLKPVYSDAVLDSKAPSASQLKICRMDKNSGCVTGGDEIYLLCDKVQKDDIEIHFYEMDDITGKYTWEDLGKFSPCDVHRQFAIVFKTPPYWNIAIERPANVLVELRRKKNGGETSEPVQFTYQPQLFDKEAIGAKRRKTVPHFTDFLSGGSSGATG

Test [3] addresses T3, GST-Co-NF-kB (UniProt F1ARL5).
T3 sequence: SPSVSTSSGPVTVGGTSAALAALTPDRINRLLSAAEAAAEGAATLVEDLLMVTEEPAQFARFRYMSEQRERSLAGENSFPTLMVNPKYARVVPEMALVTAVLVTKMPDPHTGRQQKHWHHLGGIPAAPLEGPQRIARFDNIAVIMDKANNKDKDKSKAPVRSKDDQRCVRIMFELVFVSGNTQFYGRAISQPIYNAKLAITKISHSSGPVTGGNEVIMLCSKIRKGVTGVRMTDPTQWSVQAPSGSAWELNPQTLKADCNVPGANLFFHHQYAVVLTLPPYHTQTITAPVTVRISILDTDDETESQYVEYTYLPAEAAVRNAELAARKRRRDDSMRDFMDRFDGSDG

The target of test [4] is T4, GST-Dm-Relish (UniProt Q94527).
T4 sequence: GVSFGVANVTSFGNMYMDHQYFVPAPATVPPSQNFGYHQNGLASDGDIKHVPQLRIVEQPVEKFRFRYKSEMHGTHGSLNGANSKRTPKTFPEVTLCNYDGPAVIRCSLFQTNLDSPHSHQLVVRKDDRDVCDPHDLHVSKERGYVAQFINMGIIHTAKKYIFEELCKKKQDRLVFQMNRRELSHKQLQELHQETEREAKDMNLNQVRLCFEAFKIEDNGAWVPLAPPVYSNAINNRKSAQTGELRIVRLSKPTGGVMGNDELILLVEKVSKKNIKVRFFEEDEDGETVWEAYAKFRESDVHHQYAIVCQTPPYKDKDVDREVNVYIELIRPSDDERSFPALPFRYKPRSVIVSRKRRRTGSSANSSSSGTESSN

Test [5] addresses T5, GST-Aq-NF-kB (UniProt A9Y5G7).
T5 sequence: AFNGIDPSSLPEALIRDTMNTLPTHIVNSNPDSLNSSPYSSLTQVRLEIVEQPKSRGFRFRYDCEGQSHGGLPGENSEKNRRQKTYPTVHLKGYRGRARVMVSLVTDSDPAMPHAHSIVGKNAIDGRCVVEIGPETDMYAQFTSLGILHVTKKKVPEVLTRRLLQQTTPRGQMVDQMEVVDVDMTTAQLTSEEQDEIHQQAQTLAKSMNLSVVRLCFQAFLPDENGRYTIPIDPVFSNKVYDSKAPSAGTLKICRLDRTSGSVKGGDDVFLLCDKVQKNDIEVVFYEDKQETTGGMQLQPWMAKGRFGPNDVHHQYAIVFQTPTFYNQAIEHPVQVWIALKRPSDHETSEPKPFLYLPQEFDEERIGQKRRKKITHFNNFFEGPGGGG

Only a part is listed here, and it is no random draw. The list includes weakly bound sequences.

In the case of “CCGATTAACATCATCGCGCCTTCTGATGTTAATCGGGTCTTGATTCGCTTGACGCTGCTG”, the binding signal in test [1] was 0.764 z-score; in test [2] it was -0.974 z-score; in test [3] it was -0.835 z-score; in test [4] it was -0.267 z-score; in test [5], -0.449 z-score.

For the sequence “CCGATTAACATCAGTCCACACCATGATGTTAATCGGGTCTTGATTCGCTTGACGCTGCTG”, the binding signal in test [1] is -0.549 z-score; in test [2], -0.424 z-score; in test [3], -0.218 z-score; in test [4] it was -0.137 z-score; in test [5], -0.417 z-score.

Take “CCGATTAACATCACTCCTGAAACTGATGTTAATCGGGTCTTGATTCGCTTGACGCTGCTG”: the binding signal is -0.521 z-score in test [1]; -0.37 z-score in test [2]; 0.328 z-score in test [3]; -0.545 z-score in test [4]; -0.351 z-score in test [5].

With “CCGATTAACATCAGGGAAATCCCTGATGTTAATCGGGTCTTGATTCGCTTGACGCTGCTG”, the binding signal came out at 9.75 z-score in test [1]; 11.4 z-score in test [2]; 4.02 z-score in test [3]; 10.3 z-score in test [4]; 10.9 z-score in test [5].

Regarding “CCGATTAACATCAAAACCTTTTGTGATGTTAATCGGGTCTTGATTCGCTTGACGCTGCTG”, the binding signal is -0.731 z-score in test [1]; -0.499 z-score in test [2]; 0.163 z-score in test [3]; 0.423 z-score in test [4]; -0.158 z-score in test [5].

In the case of “CCGATTAACATCATCTCCAGGTCTGATGTTAATCGGGTCTTGATTCGCTTGACGCTGCTG”, the binding signal in test [1] was 0.0153 z-score; in test [2], -0.816 z-score; in test [3], -0.663 z-score; in test [4], -1.22 z-score; in test [5], -0.391 z-score.

For the sequence “CCGATTAACATCACTGGAAAGGATGATGTTAATCGGGTCTTGATTCGCTTGACGCTGCTG”, the binding signal was 0.159 z-score in test [1]; -0.206 z-score in test [2]; 0.378 z-score in test [3]; 0.021 z-score in test [4]; -0.0719 z-score in test [5].

Turning to “CCGATTAACATCAAACTCAGCGTTGATGTTAATCGGGTCTTGATTCGCTTGACGCTGCTG”, the binding signal was -0.692 z-score in test [1]; -0.534 z-score in test [2]; 0.914 z-score in test [3]; -0.819 z-score in test [4]; -0.538 z-score in test [5].

Consider “CCGATTAACATCATTCTCTTAAGTGATGTTAATCGGGTCTTGATTCGCTTGACGCTGCTG”, for which the binding signal in test [1] is -0.552 z-score; in test [2], -0.453 z-score; in test [3], -0.259 z-score; in test [4], -0.309 z-score; in test [5], -0.336 z-score.

On to “CCGATTAACATCATACCTCCCGTTGATGTTAATCGGGTCTTGATTCGCTTGACGCTGCTG”, for which the binding signal is 0.188 z-score in test [1]; 0.434 z-score in test [2]; 1.01 z-score in test [3]; -0.174 z-score in test [4]; 0.765 z-score in test [5].

Consider “CCGATTAACATCAGATTTCATTCTGATGTTAATCGGGTCTTGATTCGCTTGACGCTGCTG”, for which the binding signal is -1.14 z-score in test [1]; -0.777 z-score in test [2]; -1.68 z-score in test [3]; -0.656 z-score in test [4]; -0.819 z-score in test [5].

Take “CCGATTAACATCAAGCGGTATTATGATGTTAATCGGGTCTTGATTCGCTTGACGCTGCTG”: the binding signal in test [1] was 0.536 z-score; in test [2] it was -0.154 z-score; in test [3], -0.448 z-score; in test [4], -0.262 z-score; in test [5], 0.242 z-score.

As to “CCGATTAACATCAACACACTGCTTGATGTTAATCGGGTCTTGATTCGCTTGACGCTGCTG”, the binding signal in test [1] was -0.288 z-score; in test [2], -0.524 z-score; in test [3] it was -0.699 z-score; in test [4] it was -0.295 z-score; in test [5], -0.34 z-score.

Take “CCGATTAACATCACTTAATGCTATGATGTTAATCGGGTCTTGATTCGCTTGACGCTGCTG”: the binding signal in test [1] is -0.579 z-score; in test [2], -0.303 z-score; in test [3], 0.349 z-score; in test [4] it was -0.0254 z-score; in test [5], -0.533 z-score.

Values taken from article PMC5700166.
